Screen size: about 310,000 compounds; about 14,000 (4.5%) showed an effect of 50% or more. The effect is printed as a negative number. Some of the results follow.
These compounds were tested against human ether-à-go-go-related gene (hERG) potassium channel (human, UniProt Q12809) (assay: primary screen, population patch clamp on CHO cells stably expressing hERG).
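Further: peak tail current of the secondary pulse compared with the same well before compound.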

human ether-à-go-go-related gene (hERG) potassium channel, sequence (Q12809 whole entry, looked up): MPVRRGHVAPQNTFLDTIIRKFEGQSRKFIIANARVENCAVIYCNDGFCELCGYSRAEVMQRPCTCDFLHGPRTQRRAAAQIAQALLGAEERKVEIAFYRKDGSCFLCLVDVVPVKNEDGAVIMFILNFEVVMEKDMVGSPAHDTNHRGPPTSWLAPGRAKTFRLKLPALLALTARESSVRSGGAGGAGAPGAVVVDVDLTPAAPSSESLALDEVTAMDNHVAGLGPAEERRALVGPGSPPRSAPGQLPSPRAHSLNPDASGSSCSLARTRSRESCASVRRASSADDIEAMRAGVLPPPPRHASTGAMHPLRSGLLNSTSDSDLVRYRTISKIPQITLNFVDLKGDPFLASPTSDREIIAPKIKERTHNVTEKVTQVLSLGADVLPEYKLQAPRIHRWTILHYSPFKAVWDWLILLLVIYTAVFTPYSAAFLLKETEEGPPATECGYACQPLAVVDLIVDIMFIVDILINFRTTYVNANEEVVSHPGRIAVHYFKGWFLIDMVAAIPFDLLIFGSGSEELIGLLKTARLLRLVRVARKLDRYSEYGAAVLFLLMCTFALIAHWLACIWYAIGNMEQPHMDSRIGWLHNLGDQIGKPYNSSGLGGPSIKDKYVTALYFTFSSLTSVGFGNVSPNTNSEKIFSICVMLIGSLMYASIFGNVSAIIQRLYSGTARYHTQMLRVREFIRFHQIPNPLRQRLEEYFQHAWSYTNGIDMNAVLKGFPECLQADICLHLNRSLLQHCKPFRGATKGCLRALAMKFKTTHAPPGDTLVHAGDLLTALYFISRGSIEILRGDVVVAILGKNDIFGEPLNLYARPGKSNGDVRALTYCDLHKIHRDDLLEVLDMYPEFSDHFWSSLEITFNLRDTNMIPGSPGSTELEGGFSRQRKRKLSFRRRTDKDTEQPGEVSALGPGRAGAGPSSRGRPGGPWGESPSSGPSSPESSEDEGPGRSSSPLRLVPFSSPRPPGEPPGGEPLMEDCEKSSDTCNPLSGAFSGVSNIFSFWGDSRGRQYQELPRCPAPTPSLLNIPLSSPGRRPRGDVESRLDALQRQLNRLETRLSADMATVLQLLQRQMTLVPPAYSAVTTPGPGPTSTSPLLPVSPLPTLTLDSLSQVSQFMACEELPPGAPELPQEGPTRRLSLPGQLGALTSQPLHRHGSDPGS

Structure (SMILES) | hERG current change (%, negative = inhibition) at 10uM
COC(=O)c1ccc(N2CCN(c3ccccc3)CC2)c(N)c1 | 10.8%
O=C(COc1ccc(Br)cc1Cl)N1CCN(c2ccccn2)CC1 | -27.2%
O=C(NCCC1CCCCN1S(=O)(=O)c1ccccc1)C(=O)Nc1ccccc1F (stereo not drawn) | 5.77%
N#Cc1sc(NCc2cccc(Cl)c2)nc1Cl | 4.01%
O=C(Nc1ccc(NC(=O)c2cc([N+](=O)[O-])ccc2N2CCOCC2)cc1)c1cccs1 | -23%
Cn1nc(C(F)(F)F)c(C(=O)Nc2ccc(F)cc2)c1Cl | 11.1%
CCn1ncc(/C=C/C(=O)c2ccccc2)c1C | 5.83%
CN(C)N1C(N)=C(C#N)C(c2cccs2)C2=C1CC(C)(C)CC2=O (stereo not drawn) | 2.14%
Cc1cc(C)cc(C(=O)N(c2ccccn2)C(C)c2ccco2)c1 (stereo not drawn) | 14.1%
Cn1nc(C(=O)OCCN2C(=O)c3ccccc3C2=O)c2ccccc2c1=O | -11.5%
CN(CCC1CCOCC1)Cc1nc(Cc2ccccc2F)no1 | 9.87%
CCOC(=O)c1nn(-c2cccc(C)c2)cc1C(=O)c1ccccc1 | -25.5%
O=C(N/N=C/c1cccc(F)c1)c1c(O)c2ccccc2[nH]c1=O | 10.3%
Cc1c(NC(=O)C(C)NCC2CCCO2)c(=O)n(-c2ccccc2)n1C (stereo not drawn) | 9.75%
COc1ccc(NC2=Nc3cccc4cccc2c34)cc1OC | 4.7%
Cc1cccc(NC(=O)C2CCC(CNC(=O)[C@@H]3Cc4ccccc4CN3)CC2)c1 (stereo partly drawn) | -2.36%
CCCCC(=O)NC(=S)Nc1ccc(S(=O)(=O)N2CCCC2)cc1 | -2.83%
CCCCOc1ccc(S(=O)(=O)N2CCN(c3ccc(N4CCN(CC)CC4)nn3)CC2)cc1 | 14.5%
CS(=O)(=O)N(CC(=O)Nc1ccccc1-c1ccccc1)c1ccccc1 | -0.135%
O=C(O)CC/C(=N\Nc1ccc([N+](=O)[O-])cc1)c1ccccc1 | 13%
COc1ccc(NC(=O)c2cc(-c3ccco3)nc3ccccc23)cc1 | 4.77%
Cc1cc(C)nc(/N=C(\N)Nc2ccccc2-c2ccccc2)n1 | -43.2%
COc1ccccc1C(=O)NCCC(=O)Nc1ccc(S(=O)(=O)N2CCC(C)CC2)cc1 | -15.2%

Structure (SMILES) | hERG current change (%, negative = inhibition) at 10uM
CCCCN(CC)C(=O)c1n[nH]c(=O)c2ccccc12 | 2.92%
COc1ccc(NS(=O)(=O)c2cccc(C(=O)NCC3(N4CCOCC4)CCCCC3)c2)cc1 | -36.7%
CCc1ccccc1OCC(=O)OCC(=O)c1c(N)n(C)c(=O)n(C)c1=O | -53.6%
CCOc1ccc(C(=O)NCC(=O)Nc2ncccc2C)cc1OCC | 18%
COCc1cc(C)nc(N2CCOCC2)c1C#N | 8.82%
Cc1cccc2sc(NC(=O)CN(C)S(=O)(=O)c3cccs3)nc12 | -24.6%
Cn1nc(C(=O)NNC(=O)c2ccc(Cl)c(S(N)(=O)=O)c2)c2ccccc2c1=O | 3.97%
COc1cc2c(C(=O)N3CCN(Cc4ccc5c(c4)OCO5)CC3)cn(C)c(=O)c2cc1OC | -21.4%
COc1ccc(NC(=O)CCOc2ccccc2)c(OC)c1 | 1.87%
CCCCOc1ccc(CN2CCSCC2)cc1 | 16%
COc1cccc(COc2ccc3ccc(=O)oc3c2)c1 | 10.9%
Cn1cccc1/C=C1\SC(=S)N(CC(=O)O)C1=O | 1.83%
O=C(NCCCSc1ccccc1)c1cccnc1 | -6.81%
COc1cc(C(=O)O)nc(OC)n1 | 20.7%
Cc1onc(-c2ccccc2)c1C(=O)NC(=S)NNC(=O)c1cccnc1 | 6.64%
COc1cc(OC)c(N(C)S(=O)(=O)c2cccc(C(=O)Nc3nc(C)cs3)c2)cc1Cl | -0.605%
Cc1ccc(C)c(OCC(=O)NNC(=O)c2ccc(NC(=O)C3CC3)cc2)c1 | 13.8%
CC1(C)C(c2cccs2)=[N+]([O-])C2(CCCCC/C2=N\NC(N)=O)N1O (stereo not drawn) | 9.16%
CC(C)NC(=O)c1ccccc1NC(=O)C1CC(=O)N(C(C)C)C1 (stereo not drawn) | 42.9%
O=C1CC2(CCN(C(=O)c3c(F)cccc3F)CC2)Oc2ccccc21 | -34.2%
Fc1ccc(-n2nnc(-c3nccs3)n2)cc1 | 3.86%
Cn1c(=O)cc(OCC(=O)NC2CCCCC2)c2ccccc21 | 4.48%
Clc1ccccc1Nc1ncnc2c1nnn2Cc1ccccc1 | 4.81%

Structure (SMILES) | hERG current change (%, negative = inhibition) at 10uM
CCOC(=O)c1c(NC(=O)CCc2ccc(CC)o2)sc(C)c1C | 1.97%
COc1cccc(N2CCN(Cc3cccnc3)CC2)c1 | 12.7%
COc1cc2c(cc1OC)C(C)N(C(=O)c1c(-c3ccccc3)noc1C)CC2 (stereo not drawn) | 12%
COc1ccc([C@@H]2CC(=O)c3c(O)cc(O)cc3O2)cc1O | 5.19%
CC(=O)Nc1ccc(S(=O)(=O)N2CCN(C3CCCCCCC3)CC2)cc1.O=C(O)C(=O)O | -0.73%
CCn1c(SCC(=O)Nc2ccc(C)cc2)nc2nc3c(cc2c1=O)COC(C)(C)C3 | -81.8%
CN1CCc2cc3c(c4c2C1Cc1ccccc1-4)OCO3 (stereo not drawn) | -22.1%
O=C(NCc1ccccn1)C1CCN(S(=O)(=O)c2cc(Cl)ccc2Cl)CC1 | 5.58%
O=C(CCC(=O)N1CCOc2ccccc21)NCCCN1CCOCC1 | 5.91%
CSC1=NC(C)(C)C=C(/C=C/c2c(Cl)cccc2Cl)N1 | 16.9%
CCCn1c(SCC(=O)NC2CCCCC2)nnc1-c1ccccn1 | -2.79%
O=C(O)c1cccc(CSc2nc(-c3ccc(Cl)cc3)cc(C(F)(F)F)n2)c1 | -0.199%
CCOC(=O)COn1c(=O)c(-c2ccc(OCC)cc2)[n+]([O-])c2ccccc21 | 16.7%
CC(=O)c1cccc(NC(=O)CCN2C(=O)C3C4CCC(C4)C3C2=O)c1 (stereo not drawn) | -13.9%
CCC(C)C(=O)Nc1ccc(OC)cc1OC (stereo not drawn) | 13.6%
COc1ccc2[nH]cc(C(=O)CN3CCCCC3)c2c1 | -8.72%
COc1ccc(Br)cc1/C=N/NC(=O)c1ccc(OC)c(OC)c1 | 13.8%
Cc1cc(C)c(NS(=O)(=O)c2ccc3c(c2)NC(=O)CC(=O)N3)c(C)c1 | 4.76%
CSCCC(=O)N(C)CC1CCN(CCc2cccc(C(F)(F)F)c2)CC1 | -64.3%
Cc1cccc(C)c1OCC(=O)N/N=C/c1cccnc1 | -5.76%
C=CCn1c(N)c(C(=O)NCC2CCCO2)c2nc3ccccc3nc21 (stereo not drawn) | -15.4%
COc1ccc(-c2nn(-c3ccccc3)cc2C(=O)Nc2nccs2)cc1OC | -7.37%
COc1ccc(C(=S)N2CCOCC2)cc1OC(=O)c1cc(OC)c(OC)c(OC)c1 | 16.2%

Structure (SMILES) | hERG current change (%, negative = inhibition) at 10uM
Cc1noc(C)c1COC(=O)c1ccccc1Oc1ccccc1 | -2.58%
CCCCC(=O)O[C@H]1CC[C@H]2[C@@H]3CCc4cc(O)ccc4[C@H]3CC[C@]12C | -4.31%
CCN(C(=O)COC(=O)c1cc(=O)[nH]c2ccccc12)C1CCS(=O)(=O)C1 (stereo not drawn) | 15%
CSc1nc(N)nc(C(C)C)n1 | -5.59%
Cc1[nH]nc(N2CCCCCC2)c1[N+](=O)[O-] | 6.22%
O=C(COc1ccc(C(=S)N2CCOCC2)cc1)N1CCOCC1 | 21.7%
C=CCC1C=CCC(CC=C)N1C(=O)c1ccccc1[N+](=O)[O-] (stereo not drawn) | -3.17%
COc1ccc2c(c1)oc(=O)c1cc(OC)ccc12 | 16.5%
COc1cc(/C=N/Nc2ccc(C(F)(F)F)cn2)ccc1O | -5.96%
CCC(NC(=O)Nc1nnc(C(F)(F)F)s1)(C(F)(F)F)C(F)(F)F | -25.5%
CC(C)(C)C1(C)OC(C(=O)NC2CCCCC2)C(C(=O)NC2CCCCC2)O1 (stereo not drawn) | -11.7%
O=C(NCc1ccccc1)N1CCC(CO)(Cc2cccc(F)c2)CC1 | -12.8%
CC1CCN(C(C(=O)O)c2ccccc2)CC1.Cl (stereo not drawn) | 15.8%
O=C(NCc1ccc(F)cc1)c1cc(C(=O)C2CC2)c[nH]1 | -5.23%
N/C(=N/[N+](=O)[O-])N1CCN(C(=O)c2ccc(Cl)cc2)CC1 | 8.11%
COc1ccccc1NC(=O)CC1C(=O)NCCN1C(=O)Nc1ccc(Cl)c(Cl)c1 (stereo not drawn) | 0.288%
O=C(OCc1c(Cl)nc2sccn12)c1cc2c(s1)CCCC2 | 6.63%
O=C(Nc1ccc2c(c1)OCO2)C1CCN(C(=O)CSc2ncnc3ccccc23)CC1 | -18.3%
Cc1cccc(C)c1NC(=O)N1CCN(c2nc3ccccc3s2)CC1 | 6.3%
CCOC(=O)c1cnc(SCc2nc(N)nc(Nc3ccc(F)cc3)n2)nc1N | -1.09%
Cc1ccc(/C=C(/C#N)C(=O)NC(C)c2ccccc2)o1 (stereo not drawn) | 3.51%

— PMC4336329 (PLoS ONE, 2015)
